# Data reported in the supplement of paper PMC4967469.
# Tests used:
# Assay in all cases: Viability of human cancer cell lines after 72 h of drug (GDSC screen)
# CUDC-101 = compound: C#Cc1cccc(Nc2ncnc3cc(OC)c(OCCCCCCC(=O)NO)cc23)c1 [CUDC-101]; conditions: top dose 5.12 µM; top dose inferred
# Method: (§1)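 Human cancer cell lines in 384-well plates, medium with 10% serum, drug for 72 h over a 256-fold dose range (nine 2-fold or five 4-fold steps up to the top dose). Adherent lines were fixed and stained with the nucleic acid dye Syto60, suspension lines read with resazurin; signal relative to control wells, capped at 0 and 100%. One two-parameter sigmoid per drug and line, fitted in a mixed model over all curves with the slope shared within a line.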
# QS11 = compound: OC[C@H](Cc1ccccc1)Nc1nc(Oc2ccc3c(c2)CCC3)nc2c1ncn2Cc1ccc(-c2ccccc2)cc1 [QS11]; conditions: top dose 10.24 µM
# Method: as §1
# JNK-9L = compound: Fc1cc(-c2ccnc(Nc3ccc(-n4cnc(N5CCOCC5)n4)cc3)n2)cc(N2CCOCC2)c1 [JNK-9L]; conditions: top dose 5.12 µM; top dose inferred
# Method: as §1
# OSU-03012 = compound: NCC(=O)Nc1ccc(-n2nc(C(F)(F)F)cc2-c2ccc3c(ccc4ccccc43)c2)cc1 [OSU-03012]; conditions: top dose 16 µM; top dose inferred
# Method: as §1
# AC220 = compound: CC(C)(C)c1cc(NC(=O)Nc2ccc(-c3cn4c(n3)sc3cc(OCCN5CCOCC5)ccc34)cc2)no1 [AC220]; conditions: top dose 1.024 µM; top dose inferred
# Method: as §1
# RDEA119 = compound: COc1cc(F)c(F)c(Nc2ccc(I)cc2F)c1NS(=O)(=O)C1(C[C@H](O)CO)CC1 [RDEA119]; conditions: top dose 5 µM, top dose inferred
# Method: as §1
# 5-Fluorouracil = compound: O=c1[nH]cc(F)c(=O)[nH]1 [5-Fluorouracil]; conditions: top dose 32 µM; top dose inferred
# Method: as §1
Cell Line,AUC (CUDC-101),IC50 (CUDC-101),AUC (QS11),IC50 (QS11),AUC (JNK-9L),IC50 (JNK-9L),AUC (OSU-03012),IC50 (OSU-03012),AUC (AC220),IC50 (AC220),AUC (RDEA119; screen: GDSC drug entry 1014),IC50 (RDEA119; screen: GDSC drug entry 1014),AUC (RDEA119; screen: GDSC drug entry 1526),IC50 (RDEA119; screen: GDSC drug entry 1526),AUC (5-Fluorouracil),IC50 (5-Fluorouracil)
"KLE (endometrium, adherent)",0.56,509 nM,0.969,> 10200 nM,0.719,1930 nM,0.844,> 16000 nM,0.974,> 1020 nM,0.919,> 5000 nM,0.927,> 5000 nM,0.879,> 32000 nM
"LXF-289 (lung adenocarcinoma, adherent)",0.638,766 nM,0.853,7760 nM,0.627,710 nM,0.622,2150 nM,0.987,> 1020 nM,0.795,2280 nM,0.823,2890 nM,0.944,> 32000 nM
"KYSE-150 (oesophagus, adherent)",0.755,1680 nM,0.861,8110 nM,0.608,623 nM,0.615,2040 nM,0.989,> 1020 nM,0.841,3280 nM,0.96,> 5000 nM,0.792,13900 nM
"HMV-II (melanoma, adherent)",0.623,753 nM,0.797,6120 nM,0.369,128 nM,0.658,3030 nM,0.959,> 1020 nM,,,0.539,409 nM,0.854,> 32000 nM
"TE-11 (oesophagus, adherent)",0.916,> 5120 nM,0.99,> 10200 nM,0.596,573 nM,0.76,5180 nM,0.99,> 1020 nM,0.884,4610 nM,0.936,> 5000 nM,0.946,> 32000 nM
"U-87-MG (glioma, adherent)",0.774,2360 nM,0.958,> 10200 nM,0.735,1710 nM,0.82,11300 nM,0.984,> 1020 nM,0.873,> 5000 nM,0.873,> 5000 nM,0.88,> 32000 nM
"RC-K8 (B-cell lymphoma, suspension)",0.708,1120 nM,0.992,> 10200 nM,0.687,983 nM,0.863,11000 nM,0.993,> 1020 nM,0.993,> 5000 nM,0.992,> 5000 nM,0.853,20000 nM
"KYSE-50 (oesophagus, adherent)",0.565,475 nM,0.815,5010 nM,0.426,205 nM,0.47,833 nM,0.988,> 1020 nM,0.966,> 5000 nM,0.941,> 5000 nM,0.877,27400 nM
"D-263MG (glioma, adherent)",0.826,4030 nM,0.893,> 10200 nM,0.638,837 nM,0.867,> 16000 nM,0.983,> 1020 nM,0.512,339 nM,0.614,690 nM,0.961,> 32000 nM
"MDST8 (large intestine, adherent)",0.667,931 nM,0.964,> 10200 nM,0.817,2820 nM,0.841,11000 nM,0.984,> 1020 nM,0.6,586 nM,0.246,58.3 nM,0.966,> 32000 nM
"H2369 (mesothelioma, adherent)",0.706,1250 nM,0.963,> 10200 nM,0.194,37.9 nM,0.703,3800 nM,0.987,> 1020 nM,0.892,> 5000 nM,0.895,> 5000 nM,0.979,> 32000 nM
"PANC-04-03 (pancreas, adherent)",0.873,> 5120 nM,0.908,> 10200 nM,0.666,1230 nM,0.786,12100 nM,0.951,> 1020 nM,0.71,1780 nM,0.625,853 nM,0.92,> 32000 nM
"TE-10 (oesophagus, adherent)",0.903,> 5120 nM,0.845,7170 nM,0.512,346 nM,0.634,2330 nM,0.988,> 1020 nM,0.884,> 5000 nM,0.798,2330 nM,0.865,27400 nM
"NCI-H226 (lung squamous cell carcinoma, adherent)",0.558,465 nM,0.967,> 10200 nM,0.667,956 nM,0.753,5610 nM,0.987,> 1020 nM,0.957,> 5000 nM,0.847,3970 nM,0.769,12700 nM
"SK-MEL-3 (melanoma, adherent)",0.586,572 nM,0.917,> 10200 nM,0.651,901 nM,0.719,4680 nM,0.979,> 1020 nM,0.56,469 nM,0.724,1520 nM,0.91,> 32000 nM
"DG-75 (Burkitt lymphoma, suspension)",0.662,905 nM,0.98,> 10200 nM,0.708,1250 nM,0.772,6260 nM,0.986,> 1020 nM,0.974,> 5000 nM,0.971,> 5000 nM,0.955,> 32000 nM
"NCI-H1703 (lung adenocarcinoma, adherent)",0.844,4930 nM,0.955,> 10200 nM,0.602,650 nM,0.87,> 16000 nM,0.691,249 nM,0.97,> 5000 nM,0.966,> 5000 nM,0.965,> 32000 nM

Cell Line,AUC (CUDC-101),IC50 (CUDC-101),AUC (QS11),IC50 (QS11),AUC (JNK-9L),IC50 (JNK-9L),AUC (OSU-03012),IC50 (OSU-03012),AUC (AC220),IC50 (AC220),AUC (RDEA119; screen: GDSC drug entry 1014),IC50 (RDEA119; screen: GDSC drug entry 1014),AUC (RDEA119; screen: GDSC drug entry 1526),IC50 (RDEA119; screen: GDSC drug entry 1526),AUC (5-Fluorouracil),IC50 (5-Fluorouracil)
"SKG-IIIa (cervix, adherent)",0.871,> 5120 nM,0.976,> 10200 nM,0.784,3000 nM,0.852,> 16000 nM,0.983,> 1020 nM,0.864,> 5000 nM,0.971,> 5000 nM,0.983,> 32000 nM
"NCI-H211 (small cell lung carcinoma, adherent)",0.395,166 nM,0.924,> 10200 nM,0.667,917 nM,0.8,7460 nM,0.953,> 1020 nM,0.965,> 5000 nM,0.941,> 5000 nM,0.878,31100 nM
"H2461 (mesothelioma, adherent)",0.735,1800 nM,0.983,> 10200 nM,0.682,1190 nM,0.865,> 16000 nM,0.979,> 1020 nM,0.907,> 5000 nM,0.853,> 5000 nM,0.979,> 32000 nM
"DBTRG-05MG (glioma, adherent)",0.659,959 nM,0.983,> 10200 nM,0.61,677 nM,0.871,> 16000 nM,0.983,> 1020 nM,0.642,832 nM,0.778,2400 nM,0.895,> 32000 nM
"MC-CAR (haematopoietic neoplasm, suspension)",0.439,223 nM,0.898,> 10200 nM,0.533,389 nM,0.626,2130 nM,0.971,> 1020 nM,0.839,2900 nM,0.928,> 5000 nM,0.409,1160 nM
"PANC-08-13 (pancreas, adherent)",0.703,1410 nM,0.982,> 10200 nM,0.345,105 nM,0.982,> 16000 nM,0.981,> 1020 nM,,,0.978,> 5000 nM,0.856,> 32000 nM
"8305C (thyroid, adherent)",0.982,> 5120 nM,0.674,2290 nM,0.559,486 nM,0.636,2670 nM,0.976,> 1020 nM,0.632,813 nM,0.657,982 nM,0.982,> 32000 nM
"SNU-182 (liver, adherent)",0.335,109 nM,0.954,> 10200 nM,0.646,827 nM,0.688,3450 nM,0.986,> 1020 nM,0.929,> 5000 nM,0.853,4190 nM,0.955,> 32000 nM
"JHH-2 (liver, adherent)",0.551,447 nM,0.985,> 10200 nM,0.961,> 5120 nM,0.852,13800 nM,0.986,> 1020 nM,0.803,2720 nM,0.843,3950 nM,0.798,16600 nM
"C-33-A (cervix, adherent)",0.379,149 nM,0.966,> 10200 nM,0.463,,0.697,3580 nM,0.962,> 1020 nM,0.89,> 5000 nM,0.826,3030 nM,0.759,11200 nM
"NCI-H1563 (lung adenocarcinoma, adherent)",0.786,2660 nM,0.951,> 10200 nM,0.587,580 nM,0.878,> 16000 nM,0.839,899 nM,0.859,> 5000 nM,0.872,> 5000 nM,0.973,> 32000 nM
"KNS-42 (glioma, adherent)",0.657,953 nM,0.943,> 10200 nM,0.693,1250 nM,0.828,12600 nM,0.971,> 1020 nM,0.943,> 5000 nM,0.961,> 5000 nM,0.917,> 32000 nM
"NCI-H1781 (lung adenocarcinoma, adherent)",0.664,916 nM,0.974,> 10200 nM,0.613,654 nM,0.898,> 16000 nM,0.989,> 1020 nM,0.987,> 5000 nM,0.972,> 5000 nM,0.957,> 32000 nM
"SW780 (bladder, adherent)",0.931,> 5120 nM,0.986,> 10200 nM,0.599,613 nM,0.986,> 16000 nM,0.986,> 1020 nM,0.646,824 nM,0.748,1730 nM,0.976,> 32000 nM
"EW-11 (Ewing sarcoma, adherent)",0.453,230 nM,0.94,> 10200 nM,0.649,936 nM,0.805,11000 nM,0.943,> 1020 nM,0.958,> 5000 nM,0.958,> 5000 nM,0.945,> 32000 nM
"MLMA (hairy cell leukaemia, semi-adherent)",0.294,83.3 nM,0.946,> 10200 nM,0.55,439 nM,0.798,7670 nM,0.986,> 1020 nM,0.986,> 5000 nM,0.973,> 5000 nM,0.741,9850 nM
"C2BBe1 (large intestine, adherent)",0.729,1580 nM,0.931,> 10200 nM,0.629,,0.785,7860 nM,0.985,> 1020 nM,0.593,583 nM,0.873,> 5000 nM,0.902,> 32000 nM

# By IC50 is meant the dose at which the fit gives 50% viability; where the fit passes the top or lowest dose, that dose stands as a limit. For AUC the same curve is integrated over the 256-fold range of doses and scaled to a fraction; values near 1 show little effect. For some of these results: Where the top dose is marked as inferred, it was derived from the fitted curves, not read from the paper. For some of these results: Where an entry number is given, a second screen of the drug exists; the two often differ.
